In all, about 310,000 compounds went through this assay and about 2,200 (0.71%) showed an effect of 50% or more. The effect is printed as a negative number. The list shows a part of the results.

The target of this assay is human ether-à-go-go-related gene (hERG) potassium channel (human, UniProt Q12809). The assay is described as follows: primary screen, population patch clamp on CHO cells stably expressing hERG.
Sequence of human ether-à-go-go-related gene (hERG) potassium channel (Q12809 whole entry, looked up): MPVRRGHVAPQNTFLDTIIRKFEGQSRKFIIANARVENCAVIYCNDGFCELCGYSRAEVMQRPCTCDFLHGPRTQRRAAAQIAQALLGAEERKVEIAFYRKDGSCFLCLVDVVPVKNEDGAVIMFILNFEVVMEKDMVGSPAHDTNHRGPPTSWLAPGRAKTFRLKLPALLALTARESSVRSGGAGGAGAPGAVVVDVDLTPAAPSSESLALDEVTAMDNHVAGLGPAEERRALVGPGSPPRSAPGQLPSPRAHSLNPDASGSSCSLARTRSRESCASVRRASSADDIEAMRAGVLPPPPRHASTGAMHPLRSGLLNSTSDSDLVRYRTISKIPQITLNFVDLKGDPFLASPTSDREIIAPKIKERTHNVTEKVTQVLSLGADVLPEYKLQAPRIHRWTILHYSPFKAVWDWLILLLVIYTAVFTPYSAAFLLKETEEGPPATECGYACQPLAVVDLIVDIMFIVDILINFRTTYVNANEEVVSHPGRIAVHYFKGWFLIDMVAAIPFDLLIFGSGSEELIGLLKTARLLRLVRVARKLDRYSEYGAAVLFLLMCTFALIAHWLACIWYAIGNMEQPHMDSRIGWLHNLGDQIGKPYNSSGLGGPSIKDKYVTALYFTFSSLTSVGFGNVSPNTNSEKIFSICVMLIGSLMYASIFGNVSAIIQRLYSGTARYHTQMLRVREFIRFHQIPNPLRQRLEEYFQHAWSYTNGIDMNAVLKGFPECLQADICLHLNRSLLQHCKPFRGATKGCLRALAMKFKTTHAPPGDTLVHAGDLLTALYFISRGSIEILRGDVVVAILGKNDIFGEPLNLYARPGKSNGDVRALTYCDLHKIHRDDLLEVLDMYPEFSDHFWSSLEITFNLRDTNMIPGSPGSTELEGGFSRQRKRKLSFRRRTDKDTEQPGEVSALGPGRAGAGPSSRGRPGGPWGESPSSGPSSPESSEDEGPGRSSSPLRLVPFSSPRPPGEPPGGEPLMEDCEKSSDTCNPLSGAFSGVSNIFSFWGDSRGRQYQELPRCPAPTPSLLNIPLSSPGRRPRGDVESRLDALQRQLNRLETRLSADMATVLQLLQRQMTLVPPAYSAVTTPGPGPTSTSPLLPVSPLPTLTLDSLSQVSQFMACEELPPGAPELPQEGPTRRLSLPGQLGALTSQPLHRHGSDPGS
As to `O=C(Cn1nc(Cc2cccnc2)c2ccccc2c1=O)N1CCN(C(=O)c2ccco2)CC1`, the “hERG current change (%, negative = inhibition) at 1uM” value is 4.49%.
On to `CC1CCCC2(C1)NC(=S)c1c(sc3c1CCCC3)N2` (centres unmarked), for which the “hERG current change (%, negative = inhibition) at 1uM” value stood at 9.02%.
On to `COC(=O)c1c(C)[nH]c(O)c1C=Nc1ccc(C(C)C)cc1`, for which the “hERG current change (%, negative = inhibition) at 1uM” value is given as 9.72%.
On to `CCOc1ccc(/C=C(/NC(=O)c2ccccc2)C(=O)NCCC(=O)O)cc1`, for which the “hERG current change (%, negative = inhibition) at 1uM” value is on record as 13.2%.
`Cc1cccc(N2C(=O)CC(N3CCN(Cc4ccc(Cl)cc4)CC3)C2=O)c1` (centres unmarked): the “hERG current change (%, negative = inhibition) at 1uM” value turned out to be 3.11%.
As for `COC(C(=O)Nc1ccc(C(C)=O)cc1)c1ccccc1` (centres unmarked), the figure is 10.8%; as for `Cc1c(C)c2ccc(OCC(=O)Nc3cccnc3)cc2oc1=O`, 12.6%.
For `O=C(Cc1cccs1)N/N=C/C=C/c1ccccc1`, the “hERG current change (%, negative = inhibition) at 1uM” value was 15.8%.
For `Nc1nonc1C(=O)NCCNc1ncccc1[N+](=O)[O-]`, the “hERG current change (%, negative = inhibition) at 1uM” value was -1.99%.
Consider `Nc1nnc(SCC(=O)N2CCCCC2)s1`, for which the “hERG current change (%, negative = inhibition) at 1uM” value is listed as 6.3%.
For the compound `Cn1c(=O)n(Cc2ccccc2F)c(=O)c2c1nc1n2CCCN1CCc1ccccc1`, the “hERG current change (%, negative = inhibition) at 1uM” value is listed as 13.3%.
Take `COc1ccccc1C1CC(c2ccc(F)cc2)Nc2ncnn21` (centres unmarked): the “hERG current change (%, negative = inhibition) at 1uM” value is listed as 4.74%.
Turning to `COC(=O)c1c(-c2ccc(C)cc2)csc1NC(=O)C1CC=CCC1C(=O)O` (centres unmarked), the “hERG current change (%, negative = inhibition) at 1uM” value is 12.5%.
`Cc1ccc(NC(=O)C(Cc2ccccc2)N2C(=O)C3C4CCC(C4)C3C2=O)cc1Cl` (centres unmarked): the “hERG current change (%, negative = inhibition) at 1uM” value turned out to be 5.09%.
Take `COc1cc(C=O)c(Br)cc1OC1CCCC1`: the “hERG current change (%, negative = inhibition) at 1uM” value turned out to be 14.1%.
As for `COc1ccc(C)cc1S(=O)(=O)N1CCN(Cc2ccccc2)CC1`, the figure is -1.43%; as for `CC1CCc2c(sc(NC(=O)COC(=O)c3ccccc3NCc3ccco3)c2C#N)C1` (centres unmarked), 12.9%.
To `COc1cc(OC)cc(C(=O)NNC(=O)CCOc2ccccc2OC)c1` belongs 9.43%; to `COc1ccccc1C(=O)Nc1ccc(OCc2nnc3c4ccccc4c(C)nn23)cc1`, 9.8%; to `Cc1ccc(NC(=O)NC2=N/C(=C(/C#N)C(=O)N3CCCC3)c3ccccc32)cc1`, 9.06%.
Turning to `CCOC(=O)C1(c2ccccc2)CCN(CCC(=O)Nc2ccccc2OC)CC1`, the “hERG current change (%, negative = inhibition) at 1uM” value turned out to be 8.38%.
Consider `N/C(CS(=O)(=O)c1ccccc1)=N\OC(=O)c1ccc(F)cc1`, for which the “hERG current change (%, negative = inhibition) at 1uM” value is recorded as 7.75%.
Regarding `CN(CC(=O)Nc1nc2ccccc2s1)S(=O)(=O)c1ccc(Cl)cc1`, the “hERG current change (%, negative = inhibition) at 1uM” value was found to be 8.16%.
For the compound `CC1(c2ccc(Cl)cc2)NC(=O)N(CC(=O)NCc2ccc(F)cc2)C1=O` (centres unmarked), the “hERG current change (%, negative = inhibition) at 1uM” value is -2.24%.
For the compound `Cc1ccc(NC(=O)CCCN2C(=S)NC(C)(C)CC2C)cc1` (centres unmarked), the “hERG current change (%, negative = inhibition) at 1uM” value was found to be 0.355%.
Consider `CCN(CC)C(=O)c1sc(NC(=O)c2ccc3c(c2)OCO3)c(C#N)c1C`, for which the “hERG current change (%, negative = inhibition) at 1uM” value was found to be 7.64%.
As to `COC(=O)c1cccc(C(=O)N2CCCC(CCC(=O)N(C)CCc3ccccn3)C2)c1` (centres unmarked), the “hERG current change (%, negative = inhibition) at 1uM” value is reported as 7.24%.
For the compound `CC(=O)NC(Cc1ccccc1C)C(=O)NC1CCN(c2ncccc2[N+](=O)[O-])CC1` (centres unmarked), the “hERG current change (%, negative = inhibition) at 1uM” value came to 10%.
As for `Cc1ccc(SCCNC(=O)c2ccc(CN3CCOCC3)cc2)cc1`, the “hERG current change (%, negative = inhibition) at 1uM” value is given as 2.26%.
`COc1cccc(NC(=O)C(c2ccccc2)N2CCCC2)c1` (centres unmarked): the “hERG current change (%, negative = inhibition) at 1uM” value is reported as 8.97%.
As to `CCn1c(COc2cccc(OC)c2)nnc1SCC(=O)N1CCOCC1`, the “hERG current change (%, negative = inhibition) at 1uM” value is -7.97%.
To `CCOC(=O)c1sc(NC(=O)/C=C/c2ccccc2)nc1C` belongs 11.9%; to `O=C(CCCCC(=O)Nc1ccccc1)Nc1ccccc1`, 26.6%.
`COc1ccc(-n2c(=O)c3c4c(sc3n3c(=S)[nH]nc23)COC(C(C)C)C4)cc1` (centres unmarked): the “hERG current change (%, negative = inhibition) at 1uM” value worked out at 15.1%.
As for `Nc1sccc1C(=O)c1ccccc1`, the “hERG current change (%, negative = inhibition) at 1uM” value came out at 7.73%.
As for `O=c1c(Cl)c(N2CCC3(CC2)OCCO3)cnn1C12CC3CC(CC(C3)C1)C2`, the “hERG current change (%, negative = inhibition) at 1uM” value is on record as 11.2%.
Regarding `O=C(NC1CCCC1)C(c1cccnc1)N(C(=O)c1csnn1)c1ccccc1Cl` (centres unmarked), the “hERG current change (%, negative = inhibition) at 1uM” value was -1.58%.
`CCc1cccc(C)c1NS(=O)(=O)c1c(C)nc2sccn2c1=O`: the “hERG current change (%, negative = inhibition) at 1uM” value is recorded as 0.344%.
As for `O=C1CC(c2ccccc2F)c2cc3c(cc2N1)CCC3` (centres unmarked), the “hERG current change (%, negative = inhibition) at 1uM” value is recorded as 16.8%.
To `Cc1ccc(-c2ccc(=O)n(CC(=O)N3CCC4(CC3)OCCO4)n2)cc1` belongs 12.5%; to `Cc1ccc(OCC(=O)N(C)CC(=O)Nc2ccc(F)cc2)c([N+](=O)[O-])n1`, 0.489%; to `CC(O)[C@H](NC(=O)C1CCN(C(=O)[C@H](Cc2ccccc2)NC(=O)OC(C)(C)C)CC1)C(=O)O` (some centres unmarked), 14.1%.
Consider `Cc1cc(SCC(=O)Nc2ccccc2)n2ncc(-c3ccccc3)c2n1`, for which the “hERG current change (%, negative = inhibition) at 1uM” value is recorded as 6.56%.
On to `CCN1CCN(C(=O)c2ccccc2Nc2ccc(SC(F)F)cc2)CC1.Cl`, for which the “hERG current change (%, negative = inhibition) at 1uM” value is -12.2%.

(Values after paper PMC4336329 (PLoS ONE, 2015).)
